{
  "source": "PubChem BioAssay AID2451",
  "about": "(National Center for Advancing Translational Sciences (NCATS), 2010)",
  "note": "Where “and” joins values, the source holds several entries; their conditions need not be identical. Identical values can stand only once. The whole screen tested about 290,000 compounds, of which about 2,100 (0.72%) were called active. This list was built around the results that the source calls inconclusive (neither active nor inactive); the mix of calls is not that of the screen. Calls come from the whole dose curve; as a rule, active = well fitted inhibition curve with a large enough effect; inconclusive = small, poorly fitted or top-dose-only effect, or effect the other way; inactive = flat fitted curve, though single readings scatter. Potencies of inconclusive entries are doubtful fits and often do not repeat. Potency is the fitted concentration of half-maximal effect; tags give direction and shape of the fitted curve.",
  "data": [
    {"molecular_target": "Fructose-bisphosphate aldolase (Giardia intestinalis (strain ATCC 50803 / WB clone C6)) (UniProt A8B2U2)", "sequence (A8B2U2 whole entry, looked up)": "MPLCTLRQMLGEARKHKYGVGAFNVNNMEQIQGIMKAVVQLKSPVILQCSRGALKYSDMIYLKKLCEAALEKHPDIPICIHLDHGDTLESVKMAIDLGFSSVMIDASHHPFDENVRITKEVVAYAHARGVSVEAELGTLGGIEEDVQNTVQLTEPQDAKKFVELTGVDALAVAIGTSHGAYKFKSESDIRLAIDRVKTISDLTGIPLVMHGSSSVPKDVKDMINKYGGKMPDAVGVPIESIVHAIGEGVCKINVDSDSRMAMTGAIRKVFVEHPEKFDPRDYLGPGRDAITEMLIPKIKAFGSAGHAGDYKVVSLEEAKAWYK", "assay": "qHTS Assay for Inhibitors of Fructose-1,6-bisphosphate Aldolase from Giardia Lamblia; note: nearly all actives have a fitted effect of over 55% in size", "conditions": "purified Giardia FBPA; series mostly up to 59.6 µM", "how_it_was_run": "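Giardia FBPA (40 nM reagent) was preincubated 10 min at RT with compound (up to 57.5 uM final), then substrate plus GAPDH/TPI/NAD/arsenate coupling system with diaphorase/resazurin was added; resorufin fluorescence (525/598 nm) was read after 20 min.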", "values": [
      {"smiles": "CC(=O)c1ccc(NC(=O)CC2Nc3cccc4cccc(c34)NC2=O)cc1", "note": "(stereo not drawn)", "Potency": "inconclusive: 3.54 µM [inhibitor, full curve]"},
      {"smiles": "C/C(=N\\N1CCN(c2ccccc2)CC1)c1ccc(O)cc1", "Potency": "inactive"},
      {"smiles": "Cc1ccc(N2C(=O)[C@@H]3[C@H](C2=O)[C@H]2C=C(C(=O)c4ccccc4)C=CN2[C@@H]3C(=O)c2ccc(Cl)cc2)cc1", "Potency": "inactive"},
      {"smiles": "COc1cccc(CNC(=O)CCC2CCCN(C(=O)c3cc(C)on3)C2)c1", "note": "(stereo not drawn)", "Potency": "inactive"},
      {"smiles": "COc1ccc(CN2CCN(Cc3ccco3)CC2)c(OC)c1", "Potency": "active: 12.6 µM"},
      {"smiles": "Nc1ccc2c(c1)OCCOCCOCCOCCOCCO2", "Potency": "inconclusive: 2.81 µM [inhibitor, partial curve]"},
      {"smiles": "COC(=O)c1ccc(OCC(O)CN2CCN(C(=O)c3ccco3)CC2)cc1", "note": "(stereo not drawn)", "Potency": "inconclusive: 14.1 µM [inhibitor, partial curve]"},
      {"smiles": "COc1ccc(OC)c(C2(O)CSC(=Nc3cccnc3)N2Cc2ccco2)c1", "note": "(stereo not drawn)", "Potency": "inactive"},
      {"smiles": "CCN(CC)CCOc1nc(C)nc2c1oc1ccccc12", "Potency": "inconclusive: 44.7 µM [inhibitor, partial curve, poor fit]"},
      {"smiles": "COc1ccc(N=Cc2ccc(-c3ccccc3)o2)cc1", "Potency": "inactive"},
      {"smiles": "CC(=O)COc1nc2c(c(-c3ccco3)c1C#N)CCc1ccccc1-2", "Potency": "inconclusive: 15.8 µM [inhibitor, single point]"},
      {"smiles": "Cc1ccc(OCC(=O)N(C)CCc2ccccn2)cc1", "Potency": "inconclusive: 17.7 µM [inhibitor, single point]"},
      {"smiles": "O=C(NNC(=O)c1ccccc1[N+](=O)[O-])c1ccccn1", "Potency": "active: 15.8 µM"},
      {"smiles": "CCOC(=O)c1c2ccc(OCC(=O)N/N=C/c3ccccc3C(F)(F)F)cc2n2ccccc12", "Potency": "inconclusive: 6.29 µM [inhibitor, full curve, poor fit]"},
      {"smiles": "CCN1C(=O)c2cccc3c(N)ccc1c23", "Potency": "active: 0.354 µM"},
      {"smiles": "COc1cc(OC)c(C2C(C#N)=C(N)OC3=C2C(=O)CC(C)C3)cc1OC", "note": "(stereo not drawn)", "Potency": "inconclusive: 15.8 µM [inhibitor, single point]"},
      {"smiles": "COc1ccc(C(OCC(O)CNCCc2ccccc2)c2ccc(OC)cc2)cc1", "note": "(stereo not drawn)", "Potency": "inconclusive: 15.8 µM [inhibitor, partial curve]"},
      {"smiles": "Cc1ccc2cc(C(c3nnnn3CC3CCCO3)N3CCc4ccccc4C3)c(=O)[nH]c2c1", "note": "(stereo not drawn)", "Potency": "inconclusive: 12.6 µM [inhibitor, partial curve]"},
      {"smiles": "COc1ccccc1[C@@H]1C(c2ccc(F)cc2)=NN(c2ccc(Br)cc2)[C@H]1C(=O)N1CCOC1=O", "Potency": "inactive"},
      {"smiles": "Clc1ccc(SCCOCCN2CCCCCC2)cc1", "Potency": "inconclusive: 14.1 µM [inhibitor, partial curve]"},
      {"smiles": "O=C(c1cccs1)N1CCC(C(=O)N2CCN(Cc3ccc4c(c3)OCO4)CC2)CC1", "Potency": "inactive"},
      {"smiles": "COCCN(C(=S)Nc1c(C)cc(C)cc1C)C(C)c1cccs1", "note": "(stereo not drawn)", "Potency": "inconclusive: 31.5 µM [inhibitor, single point]"},
      {"smiles": "O=C(O)CSCc1nc2ccccc2[nH]1", "Potency": "inconclusive: 19.9 µM [inhibitor, single point]"},
      {"smiles": "CCCn1c(O)c(CN2CCCCC2)c(C)c(C#N)c1=O", "Potency": "inconclusive: 6.29 µM [inhibitor, partial curve]"},
      {"smiles": "NCCc1ccc(O)c(O)c1", "Potency": "inconclusive: 6.29 µM [inhibitor, partial curve, poor fit]"},
      {"smiles": "O=C(N/N=C/c1cccc2cccnc12)c1ccccc1O", "Potency": "inconclusive: 7.06 µM [inhibitor, full curve]"},
      {"smiles": "CN(Cc1ccco1)S(=O)(=O)c1nnc(NC(=O)c2ccc(F)cc2)s1", "Potency": "active: 20 µM"},
      {"smiles": "CCc1ccc(CNc2ccc(N3CCN(C(C)=O)CC3)cc2)cc1", "Potency": "inconclusive: 15.8 µM [inhibitor, single point]"},
      {"smiles": "COC(=O)CCCC1=CC2=CC(=O)C(C)(OC(=O)c3cccs3)C(=O)C2=CN1CCCCO", "note": "(stereo not drawn)", "Potency": "inconclusive: 7.06 µM [inhibitor, partial curve] and inconclusive: 500 nM [inhibitor, full curve]"},
      {"smiles": "COC(=O)CC1=C(C(=O)OC)C(c2cccc(OCC(N)=O)c2)C(C#N)=C(N)O1", "note": "(stereo not drawn)", "Potency": "inactive"},
      {"smiles": "COC(=O)c1ccc2c(c1O)C(=O)c1ccccc1C2=O", "Potency": "inconclusive: 0.5 µM [inhibitor, full curve]"},
      {"smiles": "C=CCNCC(O)COc1ccc(C(C)=O)cc1OC", "note": "(stereo not drawn)", "Potency": "inconclusive: 7.92 µM [inhibitor, partial curve]"},
      {"smiles": "COCc1nnc(NC(=O)c2ccc(S(=O)(=O)N3CCCc4ccccc43)cc2)o1", "Potency": "active: 17.7 µM"},
      {"smiles": "COc1ccc(-c2cc(C(=O)Nc3ccc4c(c3)OCO4)no2)cc1OC", "Potency": "inactive"},
      {"smiles": "COc1cc(OC)cc(-c2nnc(SCC(=O)Nc3cccc(C(=O)O)c3)s2)c1", "Potency": "inconclusive: 22.3 µM [activator, partial curve]"},
      {"smiles": "C[C@H](Cc1ccc(O)c(O)c1)[C@@H](C)Cc1ccc(O)c(O)c1", "Potency": "inconclusive: 12.6 µM [inhibitor, partial curve]"},
      {"smiles": "COC(=O)CSc1ncccc1-c1nc2ccccc2[nH]1", "Potency": "inactive"},
      {"smiles": "CCN1CC=C2C(C#N)=C(N)C(C#N)(C#N)C(c3cc(Cl)ccc3Cl)C2C1", "note": "(stereo not drawn)", "Potency": "inconclusive: 15.8 µM [inhibitor, partial curve]"},
      {"smiles": "CC(=O)NC(=S)Nc1ccc2oc(-c3cc(F)c(F)cc3Cl)nc2c1", "Potency": "inactive"},
      {"smiles": "CCOC(=O)c1c(NC(=O)Cc2ccccc2)sc2c1CCN(C)C2", "Potency": "inconclusive: 14.1 µM [inhibitor, partial curve]"},
      {"smiles": "CC(C)CC(C(=O)Nc1cccc(O)c1)N1C(=O)c2ccccc2C1=O", "note": "(stereo not drawn)", "Potency": "inactive"},
      {"smiles": "O=C(/C=C/c1ccco1)NC(=S)Nc1cccc(C(=O)O)c1", "Potency": "inconclusive: 15.8 µM [inhibitor, partial curve]"},
      {"smiles": "COc1ccc(-c2cc(C)no2)cc1S(=O)(=O)N1CCN(c2ccc([N+](=O)[O-])cc2)CC1", "Potency": "inactive"},
      {"smiles": "Cc1nc(N2N=C3/C(=C/c4ccc(F)cc4)CCCC3C2c2ccc(F)cc2)sc1C(=O)N(C)C", "note": "(stereo not drawn)", "Potency": "inconclusive: 35.4 µM [inhibitor, single point]"},
      {"smiles": "COc1cccc(C(=O)CC(=O)C(=O)Nc2cc(OC)c(OC)c(OC)c2)c1", "Potency": "inconclusive: 7.94 µM [inhibitor, partial curve]"},
      {"smiles": "C=CCSC1=C(C#N)C(c2ccccc2OCC)CC(=O)N1", "note": "(stereo not drawn)", "Potency": "inconclusive: 19.9 µM [inhibitor, single point]"},
      {"smiles": "COCCNC(=O)[C@@]1(Cc2ccccc2)C=C[C@@H](C)N1C(=O)OC", "Potency": "inactive"},
      {"smiles": "COc1ccc(S(=O)(=O)/N=C2/C=CC(=O)C(C)=C2C)cc1", "Potency": "inconclusive: 17.7 µM [inhibitor, single point]"},
      {"smiles": "O=C(CNc1ccc2ccccc2c1)N/N=C/c1cc2ccccc2nc1Cl", "Potency": "inconclusive: 7.92 µM [inhibitor, partial curve]"},
      {"smiles": "Cc1ccc(C(=O)Nc2ccc(C(=O)/C=C/c3cccs3)cc2)cc1", "Potency": "inactive"},
      {"smiles": "C#Cc1ccc(C(=O)NCc2ccc(N3CCCC3=O)cc2)cc1", "Potency": "inactive"},
      {"smiles": "CCOC(=O)N1CCN(Cc2c(F)cccc2Cl)CC1", "Potency": "inconclusive: 15.8 µM [inhibitor, partial curve]"},
      {"smiles": "COc1ccc(CCNC(=O)Cn2nnc3ccccc3c2=O)cc1", "Potency": "inconclusive: 35.4 µM [activator, single point]"},
      {"smiles": "CCCN1CCc2cc(O)cc3c2C1Cc1ccc(O)c(O)c1-3", "note": "(stereo not drawn)", "Potency": "inconclusive: 12.6 µM [inhibitor, partial curve]"},
      {"smiles": "CCOc1ccc(CNc2ccc(N3CCCC3)cc2)cc1", "Potency": "active: 0.5 µM"},
      {"smiles": "CC(C)(C)c1ccc(NC(=O)N2CCN(c3ccc([N+](=O)[O-])cn3)CC2)cc1", "Potency": "inactive"},
      {"smiles": "CCOc1cc(/C=C2\\C(=O)N(CCc3ccc(OC)c(OC)c3)C(C)=C2C(=O)OC)ccc1O", "Potency": "inconclusive: 14.1 µM [inhibitor, partial curve]"},
      {"smiles": "C=CCNC(=S)N1CCC(C(=O)c2ccc(C)cc2)CC1", "Potency": "inconclusive: 11.2 µM [inhibitor, partial curve]"},
      {"smiles": "COCCN1C(=O)c2ccccc2C(C(=O)N2CCN(c3ccccc3)CC2)C1c1ccc(F)cc1", "note": "(stereo not drawn)", "Potency": "inactive"},
      {"smiles": "CCOc1ccccc1CNCCN1CCOCC1", "Potency": "inconclusive: 28.1 µM [inhibitor, single point]"},
      {"smiles": "C=CCN1C(=O)/C(=C/c2ccc3c(c2)CCCN3CCC)C(=O)NC1=S", "Potency": "inconclusive: 17.7 µM [inhibitor, single point]"},
      {"smiles": "CC[n+]1ccc(C[n+]2ccccc2)c2ccccc21", "Potency": "inconclusive: 15.8 µM [inhibitor, partial curve]"},
      {"smiles": "C=CCc1ccc(OCCOc2cccc3ccc(C)nc23)c(OC)c1", "Potency": "active: 11.2 µM"},
      {"smiles": "Cc1cccc(C(=O)N2CCC(=O)N([C@H](COCc3ccccc3)Cc3ccccc3)CC2)c1", "Potency": "inactive"},
      {"smiles": "CCc1nc(N2CCCCC2C)c2oc3ccccc3c2n1", "note": "(stereo not drawn)", "Potency": "inactive"},
      {"smiles": "COc1ccc(OC)c(C2C(C(C)=O)=C(O)C(=O)N2CCN2CCOCC2)c1", "note": "(stereo not drawn)", "Potency": "inconclusive: 15.8 µM [inhibitor, single point]"},
      {"smiles": "COc1cc(NS(=O)(=O)c2cccc([N+](=O)[O-])c2)c2ncccc2c1", "Potency": "active: 15.8 µM"},
      {"smiles": "COC(=O)Cn1cc(C(=O)C(C)(C)C)c2ccccc21", "Potency": "inactive"},
      {"smiles": "O=C(CCn1c(=O)sc2ccccc21)Nc1nccs1", "Potency": "inactive"},
      {"smiles": "Clc1ccccc1CN1CCNCC1", "Potency": "inconclusive: 28.2 µM [inhibitor, single point]"},
      {"smiles": "Brc1ccc(CN2CCN(c3ccccc3)CC2)o1", "Potency": "inconclusive: 28.2 µM [inhibitor, single point]"},
      {"smiles": "O=[N+]([O-])c1ccccc1CN1CCN(c2ncccn2)CC1", "Potency": "inconclusive: 8.91 µM [inhibitor, partial curve]"},
      {"smiles": "CCCc1nc(SCC(=O)Nc2nnc(CC)s2)c2c(=O)n(C)c(=O)n(C)c2n1", "Potency": "inactive"}
    ]}
  ]
}
